In article PMC10668032:
Some of the results follow. At the low end of the ranking the order means little.

The sequences below were run against SIX1 homeodomain (reference allele) (UniProt Q15475) (assay: universal protein binding microarray). Conditions: Universal all-10-mer PBM (8x60K, AMADID 030236), 300 nM GST-tagged protein, Alexa Fluor 488 anti-GST; buffer, salt, pH and temperature not stated; high values mean tight binding; most listed sequences are background and not binding sites; double strand, one strand shown.
For CACCTCAC, the binding signal was -0.0105 E-score.
For AGTTTGGG, the binding signal was -0.0848 E-score.
Work on CGCCGACA yielded a binding signal of 0.0717 E-score.
With TCCGGACA the binding signal was 0.105 E-score.
GGTCCCGA gave a binding signal of -0.287 E-score.
Work on AAAAAAGA yielded a binding signal of -0.165 E-score.
CCCGGAAC was tested, and the binding signal was -0.118 E-score.
In the case of ATTTGTGG, the binding signal is reported as -0.15 E-score.
GCTACCCA was tested, and the binding signal was -0.118 E-score.
With AACATCCG the binding signal was -0.0841 E-score.
Sequence ATACGTAA has a binding signal of 0.132 E-score.
With AACACTAT the binding signal was 0.0446 E-score.
For ACTCGACA, the binding signal was -0.128 E-score.
Sequence CCAACTAA has a binding signal of -0.0194 E-score.
CACGTGCG showed a binding signal of -0.306 E-score.
Work on AATCATCA yielded a binding signal of -0.154 E-score.
GTATTTCA was tested, and the binding signal was -0.0287 E-score.
Sequence CTCCCGCA has a binding signal of 0.0286 E-score.
With CCCTCTTA the binding signal was -0.0773 E-score.
With GTACCGTA the binding signal was 0.0551 E-score.
CAAGCTGG was tested, and the binding signal was -0.042 E-score.
In the case of CGTCCCAC, the binding signal is reported as -0.188 E-score.
In the case of AAATACGC, the binding signal is reported as 0.0183 E-score.
For GTAGATGA, the binding signal was 0.123 E-score.
ATGTACTG was tested, and the binding signal was -0.105 E-score.
TGCGGAAA showed a binding signal of -0.202 E-score.
Sequence GCTACTCC has a binding signal of -0.0984 E-score.
AGAACTAA was tested, and the binding signal was -0.171 E-score.
CTCGTCTA was tested, and the binding signal was -0.18 E-score.
With AAGATCGT the binding signal was 0.265 E-score.
CATACATG showed a binding signal of 0.154 E-score.
With GTAGGAAC the binding signal was -0.0257 E-score.
Sequence GTTCAGTA has a binding signal of -0.0555 E-score.
Work on ACCGCTCT yielded a binding signal of -0.13 E-score.
CGATTCAA showed a binding signal of -0.172 E-score.
Work on ACTCCAGG yielded a binding signal of 0.00525 E-score.
Work on GACTCGCC yielded a binding signal of -0.206 E-score.
For ACGTATTC, the binding signal was 0.234 E-score.
Sequence GGAGTACC has a binding signal of 0.0311 E-score.
Sequence CGGTTGCA has a binding signal of -0.216 E-score.
ATCTCCCA showed a binding signal of 0.238 E-score.
Work on TAGGGACA yielded a binding signal of 0.0629 E-score.
Work on ATGAGCAC yielded a binding signal of -0.0894 E-score.
Work on GCTTCCAA yielded a binding signal of -0.272 E-score.
In the case of AGTTTCTG, the binding signal is reported as -0.125 E-score.
Sequence CATATATG has a binding signal of 0.23 E-score.
Sequence ACCTGGCA has a binding signal of -0.0544 E-score.
For AGCTCAAA, the binding signal was 0.0473 E-score.
In the case of CCCTTTTC, the binding signal is reported as -0.0589 E-score.
CCGCCGCA was tested, and the binding signal was -0.107 E-score.
GAGTGAAA was tested, and the binding signal was -0.0625 E-score.
ACTGTTGA gave a binding signal of -0.08 E-score.
Sequence GCCCAGAC has a binding signal of -0.0733 E-score.
CCGGCCCC showed a binding signal of -0.0562 E-score.
With AAGTCATG the binding signal was -0.189 E-score.
With CGATCTCA the binding signal was 0.257 E-score.
CTGTACAA gave a binding signal of -0.16 E-score.
In the case of ATGCCGCC, the binding signal is reported as -0.101 E-score.
CTGAGGTC was tested, and the binding signal was -0.27 E-score.
With TAGCGAAA the binding signal was -0.125 E-score.
Sequence ATTACGCC has a binding signal of -0.062 E-score.
In the case of AGACGCCA, the binding signal is reported as -0.111 E-score.
GGCGGTTA gave a binding signal of 0.00737 E-score.
Work on CTTGCATA yielded a binding signal of -0.119 E-score.
For AATAACCT, the binding signal was -0.18 E-score.
For ATGTACCC, the binding signal was 0.0151 E-score.
With TGCCCGAA the binding signal was -0.217 E-score.
With GTAGCCAA the binding signal was -0.172 E-score.
Sequence CAAGATTC has a binding signal of 0.00957 E-score.
Sequence CATCATAA has a binding signal of -0.0455 E-score.
Sequence TGAATTCA has a binding signal of -0.0917 E-score.
CATACGGG was tested, and the binding signal was -0.00773 E-score.
With GTAACGAC the binding signal was -0.108 E-score.
GCGAGATA was tested, and the binding signal was 0.335 E-score.
Sequence TCCATGCA has a binding signal of -0.0342 E-score.
For AACCCGTT, the binding signal was -0.158 E-score.
In the case of CGGCTCCC, the binding signal is reported as -0.0545 E-score.
In the case of CTACCCGA, the binding signal is reported as 0.0676 E-score.
AACGGACA gave a binding signal of -0.042 E-score.
In the case of CATGTCAA, the binding signal is reported as -0.287 E-score.
For AATCAAAT, the binding signal was -0.189 E-score.
AAAATATC gave a binding signal of 0.154 E-score.
For CCGAATAC, the binding signal was 0.248 E-score.
CGACGTGC gave a binding signal of -0.118 E-score.
With AACATTCA the binding signal was -0.169 E-score.
Work on CGACCAAA yielded a binding signal of -0.0853 E-score.
